Data from the supplement of paper PMC3334620.
In all, about 33,000 sequences were measured (“E-score (-0.5 to 0.5)”: median about -0.041, highest 2% from about 0.37 on). The list shows a part of the results.

Target: T1, Ecm22 (UniProt Q05958)
T1 sequence: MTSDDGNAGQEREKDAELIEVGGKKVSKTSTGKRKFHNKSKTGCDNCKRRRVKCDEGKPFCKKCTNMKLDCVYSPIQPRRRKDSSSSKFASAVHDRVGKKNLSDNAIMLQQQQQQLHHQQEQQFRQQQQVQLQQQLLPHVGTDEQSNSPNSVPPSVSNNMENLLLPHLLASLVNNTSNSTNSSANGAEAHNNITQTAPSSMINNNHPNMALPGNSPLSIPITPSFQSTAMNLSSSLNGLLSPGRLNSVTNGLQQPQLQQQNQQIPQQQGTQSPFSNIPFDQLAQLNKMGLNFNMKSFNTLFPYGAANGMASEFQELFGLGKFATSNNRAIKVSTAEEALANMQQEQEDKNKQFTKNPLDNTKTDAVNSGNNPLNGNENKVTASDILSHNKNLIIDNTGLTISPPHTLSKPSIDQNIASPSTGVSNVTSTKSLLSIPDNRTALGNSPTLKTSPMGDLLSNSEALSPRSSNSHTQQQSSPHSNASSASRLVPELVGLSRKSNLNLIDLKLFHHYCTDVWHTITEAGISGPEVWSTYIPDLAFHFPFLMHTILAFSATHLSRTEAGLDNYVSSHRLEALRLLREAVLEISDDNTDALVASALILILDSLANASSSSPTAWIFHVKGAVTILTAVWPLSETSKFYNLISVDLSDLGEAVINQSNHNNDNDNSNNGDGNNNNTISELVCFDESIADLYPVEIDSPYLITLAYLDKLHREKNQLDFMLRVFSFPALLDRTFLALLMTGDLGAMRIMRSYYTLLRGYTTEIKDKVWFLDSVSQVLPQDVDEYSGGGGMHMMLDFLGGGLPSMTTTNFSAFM
Assay: PBM E-score (8-mer binding enrichment) (E-score (-0.5 to 0.5)); higher = stronger / more preferred TF binding; most listed sequences are background and not binding sites
Conditions: protein concentration: 200 nM; construct: GST-full length
Method in brief: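 GST-tagged yeast TFs (full-length or DNA-binding domain) were made by PURExpress in vitro transcription/translation and applied at about 100-200 nM to universal all-10-mer Agilent arrays. The arrays were made double-stranded by primer extension, on fresh or once-stripped slides. Bound protein was detected with fluorescent anti-GST, and scans were normalised with masliner. Each ungapped eight-base word, pooled with its reverse complement, received an E-score (modified Wilcoxon-Mann-Whitney statistic) from the Universal PBM Analysis Suite.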

Sequence	PBM E-score
CGAGTGTC	0.124
GTGGACAA	-0.135
CTATTACA	0.113
AAGGGTCC	-0.227
CAGCTTTA	-0.154
AGCGCCTA	-0.0437
CGGGTGTC	-0.0171
ACTAGCCA	-0.064
AAGACTCC	-0.299
ATAGCCTC	0.0159
AAACTTGG	-0.0276
TGTCAACA	0.019
GGGTTTCA	-0.196
GCCGGATA	0.0975
CGCGCTAC	0.15
GGTCCCGA	0.208
ATGTAACC	0.0107
CAGACAAC	-0.103
CTCTTTCC	-0.016
ACACGGAG	-0.00366
CCTACTGA	-0.185
ACTCGGTG	0.0872
TCACGGGA	-0.0668
AGATACAT	-0.147
TGACAAAA	-0.0699

Sequence	PBM E-score
TGCGCCCA	-0.0625
ACCCCTCA	-0.149
GGAAAGTA	-0.0547
AACTGTGA	0.011
CCCGTCAG	-0.334
GAACCTGA	-0.198
CAGCTTAA	-0.0431
ACCTTCGA	-0.0609
GGACAACA	0.0215
ACACGACT	0.117
CATCGCAA	-0.0617
CATGACAG	-0.0857
ATACATAG	-0.0517
AACTTCAA	-0.0703
CTACGCGA	0.256
ATAAAACC	-0.00182
GTGAAATA	0.131
ATAAGAGA	0.133
GGACACCC	-0.236
GCAAGCGC	0.0244
ACGAAAGT	0.325
AAATGAGT	-0.00288
AACCAATC	0.11
TGGACCCA	-0.131
AAGCGAGC	0.337

Sequence	PBM E-score
CCACGCAG	0.0477
GCGAACCA	0.146
ATGAAAGG	-0.114
TACCTTGA	0.0203
AATTATAA	-0.0438
AAAGATGC	0.0787
ATACCGAT	0.057
TAAGAAGA	0.0914
ACCATACT	0.0825
CGACTCCC	0.0301
CTAATAGC	-0.104
AGTATGGG	-0.206
AAATAGGC	-0.173
ATGTCAAG	-0.234
TAAATGGA	-0.192
GAAGACCC	-0.252
CCCAAATA	-0.214
GAGGCGCA	-0.0982
GTATAAAC	0.403
AAGTGCGC	-0.0198
GGAGCCTA	-0.169
CATAAGAA	0.104
CGAGCTAC	0.201
TACGGTCA	0.317
AGGTTGCG	-0.162

Sequence	PBM E-score
ACCGTTGC	0.175
TCGCGGCA	0.0614
CCTACGGC	-0.147
CACGACTG	0.0526
ATGCGATC	0.188
GGAGGTCA	-0.323
AGGACCAT	0.00977
CATTAATC	0.119
AAACATAC	0.16
AGTCCTAC	-0.0533
GATCATAA	0.0783
ATGGCTCC	-0.205
CCCGGTCG	0.194
CAGCAACG	0.302
GGACGACC	-0.107
AGCTGAGA	-0.276
AGCTAGAA	-0.227
AAACGTTC	0.177
AAATTGCC	0.154
GAGGCTCC	-0.0369
TAAAGTTA	-0.0147
CCGCGACC	-0.139
ATAGTTTG	0.0538
AAGTTCCA	-0.17
CAAGGGCC	-0.256

Sequence	PBM E-score
AGCCACGC	-0.14
TCCCCCCA	-0.444
CAAATGAA	0.138
ATGCGAGG	0.346
GCGGTTTA	0.0249
ATGCGATA	0.217
AATCCTAG	-0.0928
GCCTTGAA	-0.231
CCCGCAGA	-0.175
TCTACACA	-0.0142
AAAACCCC	-0.171
ATAAAGAA	-0.0539
AATACCAT	0.0007
GGAAGACA	-0.104
TAGTCATA	0.0121
CATGTAAA	-0.104
ACTATTAG	0.0209
ACTCCGAA	0.0114
AAAAGGTA	0.0779
GATAAAAC	0.242
TACCCGGA	0.116
CCGAGTCA	0.0691
AGTCAGCC	-0.218
CCAATGGC	-0.263
CACCAAAA	-0.146

Sequence	PBM E-score
AGGAGTGG	-0.149
CACTAGGC	-0.208
TCTGGTCA	-0.171
ATTCAAGC	0.145
AACACTGC	-0.0216
ACTACGGA	-0.0622
ATCGGTAG	-0.0709
ACCAGGGC	-0.271
TAAGGGCA	-0.22
CAATCATA	0.0534
CGCTTGTC	0.0493
GAGACCGC	-0.205
GTGCTGTA	0.00032
CATGAATC	-0.0619
AATCGTAA	0.333
CCAGCATC	-0.203
CTACCCCA	-0.222
CTGATCTA	-0.0881
ACCGCTCT	-0.193
AGCAGCGG	0.0325
AGTTCTGC	0.17
AAACCTCC	-0.148
ACTAATAA	-0.0191
CGCGTACG	0.366
CGATCTAG	0.00932

Sequence	PBM E-score
ATGGGCTC	-0.156
ACTCCGAT	-0.298
AGACCTTG	-0.252
CGTGAGTC	0.0982
CGCCCATC	-0.133
GCTACGGA	0.232
CAACACGC	-0.115
AGACTTCG	0.0857
ACGCCTAA	-0.0254
ACCCCCAA	-0.227
AAAGCGCG	-0.0557
GCAATATA	0.101
TGTTTCAA	-0.0668
ATTTCCGA	0.185
CTAGACCC	-0.193
AAGTCTGC	-0.241
AAACAGCA	-0.0103
AACAAAGA	0.0412
CTGGAGTA	-0.031
CTGTGCGA	0.229
CAGGCTGG	-0.00892
CTAATCCC	-0.075
